Results on one compound are retold here after PubChem BioAssay (NCI).

Each structure is given as a SMILES string. The source holds several records for some structures; these can differ, active in one and inactive in another.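 Assay: single dose, 48 h. Readout: percent growth (0 = no net growth; negative = cell death). Active: <10.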 Not every entry of the source has a single result; some have several. This list holds those alone. An entry can have further records. This drug was run again and again over the years, at its own concentration, as given; one value stands for one run. Counts like (3×) give the number of equal values in this list.

The assay deals with OVCAR-8 ovarian. The experiment in a line: NCI-60 one-dose screen, 48 h (100 = growth as untreated, 0 = no growth, -100 = all killed). The note with it: 0.25 µM.

`COc1cccc2c1C(=O)c1c(O)c3c(c(O)c1C2=O)C[C@@](O)(C(=O)CO)C[C@@H]3OC1CC(N)C(O)C(C)O1` (stereo partly specified): the growth result runs as follows: (runs of 2008) “inactive: 40.5 (2×), 41.6, 36.3, 50.2, 54.5, 48.6 (2×), 53, 49.6, 53.4, 64.4, 26.1, 36.6, 23.7, 47.5, 34.4, 34.2, 35, 28.3, 25.7, 34, 24.6, 42, 46.2, 46.7 (3×), 83.8, 43.6, 37.8, 27.7, 41.7, 35.8 (2×), 34.7, 25.5, 41.2, 41.1, 36.4, 44.8, 43.8, 41, 37.1, 44.1, 56, 43.1, 43.7, 52.6, 47.8, 42.8, 15.5, 33.1%”; (runs of 2009) “inactive: 47.9, 48.4, 42.3 (2×), 36.7, 39.4 (2×), 48.2 (2×), 57.6, 60.9, 47.1, 45.6, 42.6, 47.7, 43.1, 67, 61.8, 43.7, 39.2, 36.6, 40.1 (2×), 35, 37.3, 26.1, 36.3 (2×), 29.9, 41.5 (3×), 39.8 (3×), 41.8 (2×), 42.8 (2×), 54.6, 45.4, 25.3, 37, 31.7, 36.1, 36.5, 37.9, 32.6, 35.6, 32.7, 27.3, 34.4, 39 (2×), 28.3, 40.3 (2×), 30.4, 33.7, 30.9, 51.8, 41.3, 40.2, 44.3, 26, 38.4, 35.4%”; (runs of 2010) “inactive: 40.8, 41.2, 38.8 (2×), 41 (3×), 47.5, 40.6, 47.7, 51.5, 39.8, 47.4, 41.6 (2×), 39.3, 32.9, 36.9, 46.9, 30.3, 36.3, 34.4, 43.6, 47, 32.3, 38.5, 38.2, 42, 37.2, 38.1, 44.6, 30.7, 24.7, 36.5, 42.6, 46.7, 43.3, 44.3, 45.3, 45.4 (2×), 49.4, 50.7, 31.1, 37.8, 46.1, 40.3, 43.7, 39.7, 43.1, 42.8%”; (runs of 2011) “inactive: 41.1, 40.2 (2×), 38.5, 41, 38.4 (2×), 44.1 (2×), 44.8 (2×), 30.9, 42, 27, 46, 39.8, 47.1, 56, 47.5, 48.3, 46.1, 47, 46.2, 44.6, 46.6, 45, 39.7, 36.7, 41.8, 47.8, 41.3, 35.8 (2×), 42.4, 38.2, 37.1, 39.9, 35.9, 50.3 (2×), 41.2, 35.5, 39.5, 48, 69.5, 39, 43.1 (2×), 42.9, 36.8, 42.3, 42.8% (2×)”; (runs of 2012) “inactive: 40.7 (2×), 30, 39.3 (2×), 39.5, 39.7 (2×), 37.9, 44.6, 48.1, 46.4, 52.1 (2×), 37.4, 31.7, 34.1, 37.8 (2×), 34.6, 36.8, 38.2, 36.1, 32.5, 32.9, 40.3, 30.4, 47.7, 41.3, 42.3 (2×), 50.8, 52.7, 46.7, 45.3, 44.8, 51.3, 46.9, 43.1, 48.5, 44.3, 41, 44.9, 35.3, 52.3, 32.6, 56.8, 48.4, 46, 49.9 (2×), 50.7, 51.7, 55.3, 54.6, 56.1, 58.6, 68.1, 42.8, 41.7 (2×), 42.4, 55.7, 38.4, 50.3, 42.5, 49.3%”; (runs of 2013) “inactive: 43.5, 40.6, 42.6 (2×), 46.7, 42.3 (2×), 49.6 (2×), 44.8, 45.9, 52, 47.6 (2×), 29.8, 56.3, 43.7, 56.1 (2×), 62.6, 47.1 (2×), 54.4, 49.9 (2×), 51.7, 55.2, 50.5, 57.8, 44.9, 53.3, 50.7 (3×), 46.5, 50.2, 49.4, 51 (2×), 54.5 (2×), 66.3, 64.1, 48.2, 46.4, 58.7, 50.3, 52.5, 48.8, 49.3, 47.7, 53.5, 49.7, 66, 54.8, 57.6, 64.3, 55.7, 51.4, 33.4, 29.4, 46.3 (2×), 42.4, 55.8, 41.8, 41.7, 43.3, 40.8, 47.5, 39.3%”. For the same compound, the growth entry is, setting by setting: (runs of 2014) “inactive: 54.1, 47.4, 43.8, 49.3 (3×), 41.8, 36.8, 40.7 (2×), 44.4 (2×), 41.3 (3×), 40.8, 56.7, 45.6, 49.7, 56, 51.1 (3×), 55.4, 56.3, 66, 45.3 (3×), 44.9, 36.7 (2×), 47.1 (2×), 45.9, 47.8, 46.5, 39.7, 49.6, 45, 46.4, 48.2, 48.4, 47.6, 48.1, 50.3, 45.4, 44.1 (3×), 38.8, 47, 46.7 (2×), 35.9, 49.2, 33.9, 42.7, 35.2, 38.4, 48.3, 47.9, 40.1, 43.9, 46.1, 47.7, 42.3, 38.1, 41.5, 49.8, 41.6, 41, 36, 37.4%”; (runs of 2015) “inactive: 44.9, 42.3 (3×), 38.4 (2×), 40.6, 42.6, 51, 46.9, 43.5, 37.9 (2×), 51.9, 56.3, 43.3 (2×), 51.5, 52.7, 52.4, 37.6 (2×), 35.7 (3×), 33.3, 46.4 (2×), 41.3 (2×), 44.8, 40.7, 42.4 (2×), 40.3 (2×), 51.3, 48.3, 41.2 (2×), 41.6, 43.9, 45.5, 45, 46.2, 45.4, 39.9 (2×), 42.5 (2×), 29.2, 40.1, 36.3, 31.5, 35.3, 41.1 (2×), 55.9, 43.7, 30.1, 35.8, 34.6, 38.1, 55.8, 39.4, 33.5, 43.6, 44.6 (2×), 49.7, 35.6, 37.2, 34, 47, 49.2, 47.6, 46.3 (2×), 51.8, 44.7%”; (runs of 2016) “inactive: 43.3, 39.4, 41.2, 41.3, 47.4, 43.8 (3×), 41.5 (2×), 46.7, 42.9 (2×), 32.3, 47.9, 40.2, 39.9, 41.1, 47.6 (2×), 32.5, 33.3, 38.2, 36.8, 43.5, 39.3, 38.1, 31.9, 35.4, 38.3 (2×), 36.4, 46.5, 37.8, 49.7 (3×), 44.3 (2×), 49.2, 39.2, 45.5, 37.2, 48.1 (2×), 48.2, 46.8, 44.4, 41.7, 48.3, 50, 50.9, 52.3, 55.3, 50.3, 57.6, 55.9, 51.8, 53.2 (2×), 51.2, 51.3, 43.1, 40.8, 39.1, 40.3%”; (runs of 2017) “inactive: 45.3, 43.6, 51.8, 41.2, 37.7 (2×), 41.1 (2×), 37.5, 41.8, 42.5, 45.6, 45.4 (2×), 39.7, 33.9, 33.3, 34.4 (2×), 35.4 (2×), 39.9 (2×), 44.1, 45.8, 41 (2×), 30.4, 37.6, 38.2 (2×), 39.2 (2×), 39.5, 43.1 (2×), 43.3 (2×), 39.1, 40.1, 37.4 (2×), 43.5, 41.3, 40.7, 36.7, 44.8, 39.3, 34.5, 34, 38.1, 36.9 (3×), 35.2, 42.9, 40.3, 36.1, 36.8 (2×), 40.8, 41.6, 35.1, 42, 42.4, 39.4, 37, 42.6, 36, 39, 36.2, 36.6, 37.3, 35.3%”; (runs of 2018) “inactive: 36.5, 33.8, 37.5 (2×), 35.5, 35 (2×), 36.7, 34.9, 35.7 (2×), 35.2, 38.1 (2×), 39.4 (3×), 43.3, 33.9, 42.7, 39.5, 39.3, 42 (2×), 41.2, 46.1, 38.3, 40.7, 41.5 (2×), 38.8, 40.3 (2×), 37.6 (2×), 41 (2×), 44.9, 37.8 (2×), 35.8, 41.1, 37.4 (2×), 38.6, 35.6, 38.2, 39.8, 36, 31.2, 29.8%”.
